We go through 44 compounds from ChEMBL document CHEMBL4888484, “Replenishing the malaria drug discovery pipeline: Screening and hit evaluation of the MMV Hit Generation Library 1 (HGL1) against asexual blood stage Plasmodium falciparum ,using a nano luciferase reporter read-out” (2022).

SMILES strings stand for the structures. Among all 150,000 compounds or so, about 540 (0.36%) showed an effect of 50% or more. This is one part of the list.

In this assay the test system is Plasmodium falciparum. In words: Primary screen in NF54 nanoGlo assay, in single point, at 2uM, 72h; a lower Z score goes with more inhibition. The note with it: timepoint 72 hour. The assay is classed as functional, Erythrocyte.
Consider `CCCN1CCN(CCCNC(=O)CCCN2C(=O)CCn3nc(-c4cccn4C)cc32)CC1`, for which the “% Inhibition” value is on record as -8% and the Z score was 1.58.
Consider `CC(C(=O)O)C(NC(=O)c1cscn1)c1ccccc1` (stereo not drawn), for which the “% Inhibition” value is on record as -4% and the Z score stood at 0.37.
Taken in the same sequence, the figures for `CC(C)CCNC(=O)c1ccc(N2CCCc3ccccc32)s1` were -4% and 0.74.
Regarding `O=C(NC1CC(O)C(CO)C1)C1CCCC1` (stereo not drawn), the “% Inhibition” value is listed as -12% and the Z score is on record as 1.83.
Taken in the same sequence, the figures for `CC(=O)Nc1cc(C)c(S(=O)(=O)Nc2nccn2-c2ccccc2)cc1Br` were -2% and 0.35.
The like results for `CO[C@@]1(CNc2nc3cccc(F)c3o2)CCS(=O)(=O)C1` were, in that order, 4% and -0.81.
The like results for `COc1ccc([C@H]2CCc3nc(C(=O)N4CCN(c5ccccc5OC)CC4)cn3C2)c(OC)c1` were, in that order, 0% and 0.06.
As for `C[C@H](C(=O)Nc1ccncc1F)C1CCOCC1`, the “% Inhibition” value is given as -7% and the Z score is on record as 1.3.
Turning to `Cc1cc(C)c(C#N)c(NC[C@H]2CN(C)CCN2C)n1`, the “% Inhibition” value is -9% and the Z score was 0.88.
Consider `CNc1ccnc(NCCCOC2CCCC2)n1`, for which the “% Inhibition” value turned out to be 3% and the Z score is recorded as -0.4.
The like results for `CNc1nc(N2CC[C@@](O)(C3CCOCC3)[C@H](C)C2)ncc1F` were, in that order, 7% and -1.16.
On to `NC(=O)c1cc2c(nc1-c1ccc(C(=O)N3CCOCC3)cc1)CCC2`, for which the “% Inhibition” value was 1% and the Z score is recorded as -0.24.
The like results for `CCOC(=O)c1cnn(Cc2csc(-c3ccccn3)n2)c1C#N` were, in that order, -9% and 1.72.
Taken in the same sequence, the figures for `CCn1nccc1S(=O)(=O)NCC1(C(C)C)CC1` were 10% and -1.37.
The like results for `CC(CC(O)c1cccs1)NCc1nccn1C` (stereo not drawn) were, in that order, 14% and -1.68.
`CCC[C@H](O)CN(Cc1ccc2c(c1)OCO2)Cc1ccc(C)o1`: the “% Inhibition” value is -9% and the Z score was determined as 1.3.
Consider `O=C(Cc1ccc(Cl)cc1)Oc1ccccc1N1C(=O)C2CCCCC2C1=O` (stereo not drawn), for which the “% Inhibition” value worked out at 2% and the Z score was -0.25.
Consider `CC(C)(NC(=O)c1ccnc(C2CC2)c1)c1nccs1`, for which the “% Inhibition” value is listed as -8% and the Z score stood at 1.7.
Taken in the same sequence, the figures for `O=C(COc1ccc(-n2cccn2)nn1)NCc1nccc(N2CCCCC2)n1` were -12% and 2.23.
Taken in the same sequence, the figures for `CCc1c(C(=O)N2C[C@@H](C)[C@](C)(C(=O)O)C2)cnn1CC(C)C` were 2% and -0.38.
Consider `Cc1cc(C(=O)NCCc2ccccn2)cc(NCC(F)(F)F)n1`, for which the “% Inhibition” value is recorded as -5% and the Z score is reported as 0.68.
The like results for `CCC(CC)C(=O)Nc1ccc(Cl)c(Cl)c1` were, in that order, 3% and -0.54.
Take `Cc1ncc2ccc(C(=O)N[C@@H](CO)c3ccc(Cl)cc3C(F)(F)F)cn12`: the “% Inhibition” value is reported as -17% and the Z score was determined as 2.22.
With `CC(C)c1nc(N2CCCC2=O)sc1C(=O)NC1CCCCCC1`, the “% Inhibition” value was -2% and the Z score was 0.18.
The like results for `COc1cncc(O[C@H]2CCCN(S(=O)(=O)C(C)C)C2)n1` were, in that order, -15% and 2.49.
Regarding `Cc1nc(O)c2c(n1)CN(Cc1cc(Cl)c3c(c1)OCCO3)C2`, the “% Inhibition” value is -18% and the Z score was determined as 1.78.
Consider `CCn1cc(N[C@@H](C)C(=O)NCc2cccs2)cn1`, for which the “% Inhibition” value is on record as -6% and the Z score amounted to 0.9.
The like results for `Cc1ccc(C(=O)Nc2nc3n(n2)[C@H](c2ccc(Cl)cc2)CC(=O)N3)cc1` were, in that order, -12% and 1.24.
The like results for `CN1CCN(Cc2cnn(-c3cccc(F)c3)c2)C[C@]12CCNC(=O)CC2` were, in that order, -2% and 0.29.
Turning to `Cc1ccc(F)cc1NC(=O)N1CC[C@@H](CO)[C@@H](O)C1`, the “% Inhibition” value is reported as -3% and the Z score was determined as 0.58.
Taken in the same sequence, the figures for `CCc1nc2cc(N3C(=O)[C@H]4CCCN4C3=O)ccc2o1` were 5% and -1.03.
Taken in the same sequence, the figures for `CC(C)=CCO[C@H]1COCC[C@@H]1NC(=O)c1cccn1C` were 20% and -2.57.
The like results for `CC1(C)CCc2sc(NC(=O)N[C@@H]3CCCC[C@H]3S(C)(=O)=O)nc21` were, in that order, 4% and -0.62.
As to `Cc1nc(Cn2cncc(-c3ccccc3)c2=O)oc1C`, the “% Inhibition” value is -3% and the Z score was 0.33.
On to `CCNC(=O)NC1CN(c2cccc(F)c2C#N)C[C@@H]1OC` (stereo partly drawn), for which the “% Inhibition” value was determined as 2% and the Z score is recorded as -0.2.
The like results for `CN(Cc1cccs1)C(=O)CC[C@H](N)c1ccccc1` were, in that order, -4% and 0.76.
As to `NC(=O)C1CCC(C(=O)N2CCC3(CCCCC3)C2)CC1` (stereo not drawn), the “% Inhibition” value is on record as -10% and the Z score was 1.24.
The like results for `Cc1nc(-c2cscc2C)cc(C(C)C)n1` were, in that order, -19% and 1.74.
Regarding `O=C1C[C@H](N2CCN(/C=C/c3ccccc3)CC2)C(=O)N1c1ccccc1`, the “% Inhibition” value is listed as -19% and the Z score worked out at 2.07.
The like results for `CCc1nc(NCc2ccc(F)cc2)c2onc(-c3ccc(C)cc3)c2n1` were, in that order, -5% and 0.64.
The like results for `CCn1nnnc1-c1cccc(NC(=O)NCc2nc(C)cs2)c1` were, in that order, -15% and 2.03.
Taken in the same sequence, the figures for `CCN1CCN(CCC(=O)NC2CC(C)(OC)C2(C)C)CC1` (stereo not drawn) were 0% and -0.05.
For `Cc1nn(C)c(C)c1C(=O)N(C)Cc1nc(C(F)(F)F)cs1`, the “% Inhibition” value is reported as -10% and the Z score is reported as 1.73.
Regarding `CC[C@@H](Cn1nnc2ccccc2c1=O)NC(=O)Nc1cc(OC)cc(OC)c1`, the “% Inhibition” value is 0% and the Z score is on record as -0.04.

As a reminder, the % Inhibition is the relative decrease from the control value, in per cent.
